The record followed here is patent US20230272119A1 (MARENGO THERAPEUTICS, published 2023).

In assay [1] the target is T1, α-IL12β heavy-hCHIg_Hole_Cys (SEQ ID NO: 170) (Homo sapiens (Human), UniProt P0DOX5 1-449 = IgG part).
T1 construct: full heavy chain, human Fc hole; Fab analysed after papain cleavage in the MS assay; germline VH3-33*01; also called HCP1 of multispecific molecules 3 and 9
Put plainly: KappaSelect/LambdaFabSelect resin analysis of multispecific molecule 9, reduced gel.

Assay [2] has as its target T2, α-IL12β heavy-hCHIg (SEQ ID NO: 172) (Homo sapiens (Human), UniProt P0DOX5 1-449 = IgG part).
T2 construct: full heavy chain, human Fc without knobs-into-holes mutations; germline VH3-33*01; also called HCP1 of multispecific molecule 8
Put plainly: KappaSelect/LambdaFabSelect resin analysis of multispecific molecule 8, reduced gel.

B1: α-IL12β light-hCLIg_vl-IL2 (SEQ ID NO: 173) (other)
light: QSVLTQPPSVSGAPGQRVTISCSGSRSNIGSNTVKWYQQLPGTAPKLLIYYNDQRPSGVPDRFSGSKSGTSASLAITGLQAEDEADYYCQSYDRYTHPALLFGTGTKVTVLGQPKANPTVTLFPPSSEELQANKATLVCLISDFYPGAVTVAWKADGSPVKAGVETTKPSKQSNNKYAASSYLSLTPEQWKSHRSYSCQVTHEGSTVEKTVAPTECSGGGGSGGGGSGGGGS[about 150 residues not printed]
notes: lambda light chain with C-terminal IL-2 fusion; germline Vl1-44*01; also called LLCP of multispecific molecules 8 and 9
Turning to B1, the binding result in assay [1] and in assay [2] was “binds” each time.
